Results reported in PubChem BioAssay (NCI).
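Values below derive from 48-hour exposures of cells grown in 96-well plates, with endpoints linearly interpolated between the two concentrations bracketing the appropriate inhibition level. GI50 marks 50% less growth. At the TGI there is no net growth.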 Active and inactive are the calls of the source. No stated cut-off is given here; in the data, active means GI50 below about 0.43 µM; inactive means the rest.

Tested on: NCI-H322M lung
Experiment: inhibition of tumour cell growth, NCI panel, 48 h

Row | Structure (SMILES) | TGI [µM] | GI50 [µM] | outcome
1 | CC1=Nn2c(nnc2-c2ccccc2Cl)NC(C)(C)C1 | > 100 | – | –
2 | Cc1ccc(S(=O)(=O)Oc2ccccc2-c2ccccc2)cc1 | > 100 | 4.8 | –
3 | Cc1c(CN)c(C)c(CN)c(C)c1CN | > 100 | – | –
4 | COC1OC(C)C(OC(=O)C(C)(C)C)C(OS(=O)(=O)c2ccc(C)cc2)C1OS(=O)(=O)c1ccc(C)cc1 (stereo unspecified) | > 100 | – | –
5 | Cc1cc(=O)[nH]c(NN2C(Cl)C(=O)C2c2ccc(O)cc2)n1 (stereo unspecified) | 23.1 | – | –
6 | COc1cc(/C=C2\CCC(C)C3=C(c4cc(OC)c(OC)c(OC)c4)C(C#N)=C(N)OC32)cc(OC)c1OC (stereo unspecified) | 99.7 | – | –
7 | C=C1C2CC[C@@](C)(O)C2[C@H]2OC(=O)C(=C)[C@@H]2C[C@H]1O (stereo partly specified) | > 100 | – | –
8 | COC1CC(OC)C2OC(c3ccccc3)OCC2O1 (stereo unspecified) | > 100 | – | –
9 | C[PH+](C)C.C[PH+](C)C.[Au] | > 100 | – | –
10 | COC(=O)c1ccccc1C1CN=NC12Cc1c(C)cccc1C2=O (stereo unspecified) | > 100 | – | –
11 | COc1ccc(-c2c3ccccc3c(-c3ccc(OC)cc3)c3ccccc23)cc1 | > 100 | – | –
12 | C[C@]12CC[C@@H]3c4ccc(OS(N)(=O)=O)cc4CC[C@H]3[C@@H]1CCC2=O | > 100 | – | –
13 | Cc1ccc2nc3ccccc3c(NCc3ccccc3)c2c1 | 9.49 | 2.23 | –
14 | COc1ccc(OC)c(Nc2nc3ccccc3c3c2-c2ccc(OC)cc2C3=O)c1 | > 100 | > 100 | –
15 | CSC1C=C(C(C)C)CCC1(C)SC (stereo unspecified) | 64.5 | – | –
16 | COc1ccc(Nc2nc(C#N)c(N)s2)cc1 | > 100 | – | –
17 | Oc1cccc2cc(Cl)cnc12 | > 100 | – | –
18 | Cc1ccc(-n2c(C)n[nH]c2=O)cc1 | > 100 | – | –
19 | Cc1nc2c(n1-c1ccc(Br)cc1)C(=O)c1ccccc1C2=O | > 68.2 | – | –
20 | CC1(C)CSCC(C)(C)C(=N/N)/C1=N\N | > 100 | – | –
21 | NC(Cc1ccc(OCc2ccccc2)cn1)C(=O)OCc1ccccc1 (stereo unspecified) | > 100 | – | –
22 | COc1ccc(COC(=O)NNC(=O)C2CSC(c3ccccc3)N2C(C)=O)cc1 (stereo unspecified) | > 100 | – | –
23 | COc1cc(C2c3cc4c(cc3[C@@H](NCCCN3CCCC3=O)C3COC(=O)[C@H]23)OCO4)cc(OC)c1O (stereo partly specified) | > 100 | – | –
24 | COc1c(C)c(OC)c2c(c1O)[C@@H]1[C@@H]3Cc4c(OC)c(C)c(OC)c(O)c4[C@H](CNC(=O)c4ccc5ccccc5n4)N3[C@@H](C#N)[C@H](C2)N1C | 0.00129 | – | –
25 | NCCOc1ncccc1/C=C1\C2C=CC=CC2C2C=CC(F)=CC12 (stereo unspecified) | 3.61 | 1.64 | –
26 | N#C/C(=C\c1ccc(Cl)cc1)c1nc(-c2cc3ccccc3oc2=O)cs1 | > 100 | – | –

Row | Structure (SMILES) | TGI [µM] | GI50 [µM] | outcome
27 | Cc1nnc2sc(Cc3cnc(N)s3)nn12 | > 100 | – | –
28 | C[C@]12CC[C@H](O)C[C@@H]1CC[C@@H]1[C@@H]2CC[C@]2(C)[C@@H](c3cc(C(F)(F)F)n[nH]3)CC[C@@H]12 | 22.5 | – | –
29 | O=C(O)c1cc2cc(OCc3ccccc3)ccc2[nH]1 | > 100 | – | –
30 | COc1c(-c2ccccc2)oc2c(CP(=O)(OC)OC)cccc2c1=O | > 100 | – | –
31 | C=CCN1C(=O)C(=O)N(CC=C)C(=O)C1=O | > 100 | – | –
32 | Cc1ccc(S(=O)(=O)N2CCCN(S(=O)(=O)c3ccc(C)cc3)CC2)cc1 | > 100 | – | –
33 | O=C1C=Cc2c(-c3ccccc3)oc3cccc1c23 | > 100 | – | –
34 | Clc1ccc(CN2COc3c(ccc4cccnc34)C2)cc1Cl | 15.5 | 1.52 | –
35 | N#Cc1c(C#N)c(SSc2c(C#N)c(C#N)c(N)n2-c2ccc(F)cc2)n(-c2ccc(F)cc2)c1N | 31.2 | – | –
36 | COc1cc2c3c(n(CCCNCCCNCCCn4c5c(c6cc(OC)c(OC)cc6c4=O)C(=O)c4ccccc4-5)c(=O)c2cc1OC)-c1ccccc1C3=O | > 100 | 6 | –
37 | CO/N=C(\COc1ccc2c(=O)cc(-c3ccccc3)oc2c1)c1ccc(F)cc1 | > 100 | > 100 | –
38 | c1ccc(C2=NOC3COc4ccccc4OCC23)cc1 (stereo unspecified) | > 100 | – | –
39 | CSC1(C)CC2C(CC1N1CCOCC1)C2(C)C (stereo unspecified) | > 100 | – | –
40 | NCc1ccc(O)c(O)c1 | > 100 | – | –
41 | C=C(CC[C@@H](C)[C@H]1CC[C@H]2[C@@H]3C[C@@H](O)[C@H]4C[C@@H](O)CC[C@]4(CO)[C@H]3CC[C@]12C)C(C)C | 12 | – | –
42 | O=C1N=C(c2c(-c3[nH]c(=O)c4ccc(Br)cc4c3O)c(O)c3ccccc3c2O)C(=O)c2cc(Br)ccc21 | > 16.7 | 0.529 | –
43 | Cc1c(-c2ccc(O)c(O)c2)oc(=O)c2c(O)cc(O)cc12 | 49.1 | 16.7 | –
44 | CC[C@H](CC[C@@H](C)[C@H]1CC[C@H]2[C@@H]3CC=C4C[C@@H](O)CC[C@]4(C)[C@H]3CC[C@]12C)C(C)C | > 100 | – | –
45 | O=C(Nc1ccc(-n2ccc3c(NC(=O)c4ccccc4)nccc32)cc1)c1cccc(C(F)(F)F)c1 | > 34.1 | 3.87 | –
46 | CS(C)(=O)=O | – | – | inactive
47 | CC1(C)C(O)OC(O)C1(C)C (stereo unspecified) | > 100 | – | –
48 | CN1N=C(c2ccncc2)OC1c1ccc(Cl)cc1Cl (stereo unspecified) | > 100 | – | –
49 | NC(=O)[C@@H](CCC(F)(F)F)N(Cc1ccc(-c2ncon2)cc1F)S(=O)(=O)c1ccc(Cl)cc1 | > 100 | > 55.5 | –
50 | CC(=O)Oc1cc2c[n+](C)c3c4cc(OC(C)=O)c(OC(C)=O)cc4ccc3c2cc1OC(C)=O | > 46.1 | – | –
51 | COc1ccc(-c2nc3cc(F)ccc3s2)cc1O | > 100 | – | –
52 | C=CCNC(=O)NNC(O)(C(=O)OCC)C(F)(F)F (stereo unspecified) | > 100 | – | –

Row | Structure (SMILES) | TGI [µM] | GI50 [µM] | outcome
53 | C[Si](C)(C)CC(N)=O | > 100 | – | –
54 | O=C(CCl)Nc1ccc2c(Nc3cc(O)ccc3Cl)ncnc2c1 | 10.2 | 5.19 | –
55 | CCCCCCCCCCCCCCNc1nc(C(=O)OCC)ncc1-c1ccc(C(F)(F)F)cc1 | > 100 | > 100 | –
56 | CC12CC[C@@H]3c4cc5c(cc4CC[C@H]3[C@@H]1CCC2O)oc1cc(F)ccc15 (stereo partly specified) | 48.2 | 16.2 | –
57 | COc1cc2c(cc1OCCCCOc1cc3nc(C)nc(Cl)c3cc1OC)N=C[C@@H]1CCCN1C2=O | 4.65 | – | –
58 | O=c1c2c3c(sc2n2c(CCl)nnc2n1Cc1ccccc1)CCCC3 | 16.8 | 6.13 | –
59 | C[C@H](NS(=O)(=O)c1ccc(NC(=O)c2ccccc2)cc1)C(=O)O | > 100 | – | –
60 | C=C(C)C(=O)OC1C[C@H](COC(C)=O)C2CC=C(C)C2C2OC(=O)C(=C)[C@H]12 (stereo partly specified) | 29.6 | – | –
61 | COc1cc(C(=O)/C=C/c2cc(-c3cc(OC)c(OC)c(OC)c3)n[nH]2)cc(OC)c1OC | 4.86 | 2 | –
62 | COc1cc2c(c(OC)c1)C(C)=NC(C)C2 (stereo unspecified) | > 100 | – | –
63 | O=C1CS/C(=N/S(=O)(=O)c2ccc(N3N=C4c5ccccc5CC4C3c3cccs3)cc2)N(c2ccccc2)C1 (stereo unspecified) | 56.3 | 16.9 | –
64 | CC#C[C@@]1(O)CCCCC1O (stereo partly specified) | > 100 | – | –
65 | N=C(c1ccc(-c2cn3cc(C(=N)N4CCCC4)ccc3n2)cc1)N1CCCC1 | > 100 | – | –
66 | COc1nc(C(=O)O)c(Cl)c(OC)c1Cl | > 100 | – | –
67 | COC(=O)[C@@H](NC1(c2ccccc2)c2ccccc2-c2ccccc21)[C@H](OC(=O)[C@H]1CCCN1S(=O)(=O)c1ccccc1)C(=O)OC | > 100 | – | –
68 | CC(C)(C)OC(=O)CCC1NC(=O)[C@@H]2Cc3c([nH]c4ccccc34)C(C3CCCCC3)N2C1=O (stereo partly specified) | > 100 | – | –
69 | O=c1c2sc3ccccc3c2nnn1-c1ccc(F)c(Cl)c1 | > 100 | 6.57 | –
70 | COC(O)C(=O)c1c2c(cc3c1CCC3)CCCC2 (stereo unspecified) | 22.2 | – | –
71 | O=C(O)c1cccc(CN2CCCCC2)c1 | > 100 | – | –
72 | CC(C)(C)c1cc(C(C)(C)C)c2c(c1O)OC(=O)CS2 | 91.3 | – | –
73 | c1cc2ccc3cc2cc1CNCCN1CCNCc2ccc4ccc(cc4c2)CNCCN(CCNC3)CCNCc2ccc3ccc(cc3c2)CNCC1 | 7.84 | 2.35 | –
74 | COc1cccc(-c2cc(=O)c3cc(NC(C)=O)ccc3[nH]2)c1 | > 100 | – | –
75 | Cc1noc(NS(=O)(=O)c2ccc(NC(=O)c3ccc4[nH]c5ccccc5c(=O)c4c3)cc2)c1C | 90.9 | – | –
76 | CCN1C(Cl)=NS(=O)(=O)c2ccccc21 | > 100 | – | –
77 | COc1ccc(O)cc1C=O | > 100 | – | –
